Test results taken from patent US10299477B2 (priority 2015, dated 2019).

The compounds below were run on Phytophthora infestans. Conditions: 250 ppm, sprayed 2.5 ml/pot before inoculation; evaluated 5-10 days after inoculation.
Format: in vivo

| Structure (SMILES) | Test F (control value class, late blight on tomato) |
| --- | --- |
| CCOc1cc(F)c(-c2c(-c3cccc(F)c3Cl)cc(Cl)c(=O)n2CC)c(F)c1 [Compound 658] | L (L shows 50% or less of control values) |
| CCOc1cc(F)c(-c2c(-c3cccc(F)c3Cl)cc(Br)c(=O)n2CC)c(F)c1 [Compound 659] | L (L shows 50% or less of control values) |
| CCOc1cc(F)c(-c2c(-c3cccc(F)c3Cl)cc(C)c(=O)n2CC)c(F)c1 [Compound 660] | H (H shows more than 50% of control values) |
| COc1cccc(-c2ccc(=O)n(C)c2-c2c(F)cc(F)cc2F)c1Cl [Compound 661] | H (H shows more than 50% of control values) |
| COc1cccc(-c2cc(Br)c(=O)n(C)c2-c2c(F)cc(F)cc2F)c1Cl [Compound 662] | L (L shows 50% or less of control values) |
| COc1cc(F)c(-c2c(-c3cccc(OC)c3Cl)ccc(=O)n2C)c(F)c1 [Compound 663] | H (H shows more than 50% of control values) |
| CCOc1cc(F)c(-c2c(-c3cccc(OC)c3Cl)ccc(=O)n2C)c(F)c1 [Compound 664] | H (H shows more than 50% of control values) |
| CCn1c(-c2c(F)cc(OC)cc2F)c(-c2cc(F)cc(F)c2Cl)cc(Cl)c1=O [Compound 666] | L (L shows 50% or less of control values) |
| CCn1c(-c2c(F)cc(OC)cc2F)c(-c2ccccc2Br)ccc1=O [Compound 667] | L (L shows 50% or less of control values) |
| CCn1c(-c2c(F)cc(OC)cc2F)c(-c2ccccc2Br)cc(Cl)c1=O [Compound 668] | L (L shows 50% or less of control values) |
| COc1cc(F)c(-c2c(-c3cccc(OC)c3Cl)cc(Br)c(=O)n2C)c(F)c1 [Compound 669] | L (L shows 50% or less of control values) |
| CCOc1cc(F)c(-c2c(-c3cccc(OC)c3Cl)cc(Br)c(=O)n2C)c(F)c1 [Compound 670] | H (H shows more than 50% of control values) |
| COc1cccc(-c2cc(C)c(=O)n(C)c2-c2c(F)cc(F)cc2F)c1Cl [Compound 671] | L (L shows 50% or less of control values) |
| COc1cc(F)c(-c2c(-c3cccc(OC)c3Cl)cc(C)c(=O)n2C)c(F)c1 [Compound 672] | L (L shows 50% or less of control values) |
| CCOc1cc(F)c(-c2c(-c3cccc(OC)c3Cl)cc(C)c(=O)n2C)c(F)c1 [Compound 673] | L (L shows 50% or less of control values) |
| CCn1c(-c2c(F)cc(F)cc2F)c(-c2cccc(F)c2C)ccc1=O [Compound 674] | L (L shows 50% or less of control values) |
| CCn1c(-c2c(F)cc(F)cc2F)c(-c2cccc(F)c2C)cc(Cl)c1=O [Compound 675] | L (L shows 50% or less of control values) |
| COc1cc(F)c(-c2c(-c3cc(F)cc(F)c3Cl)ccc(=O)n2C)c(F)c1 [Compound 676] | L (L shows 50% or less of control values) |
| COc1cc(F)c(-c2c(-c3cc(F)cc(F)c3Cl)cc(Cl)c(=O)n2C)c(F)c1 [Compound 677] | L (L shows 50% or less of control values) |
| COc1cc(F)c(-c2c(-c3cc(F)cc(F)c3Cl)ccc(=O)n2CC(F)F)c(F)c1 [Compound 678] | L (L shows 50% or less of control values) |

| Structure (SMILES) | Test F (control value class, late blight on tomato) |
| --- | --- |
| COc1cc(F)c(-c2c(-c3cc(F)cc(F)c3Cl)cc(Cl)c(=O)n2CC(F)F)c(F)c1 [Compound 679] | L (L shows 50% or less of control values) |
| Cn1c(-c2c(F)cc(Br)cc2F)c(-c2cc(F)ccc2Cl)ccc1=O [Compound 680] | L (L shows 50% or less of control values) |
| Cn1c(-c2c(F)cc(Br)cc2F)c(-c2cc(F)ccc2Cl)cc(Cl)c1=O [Compound 681] | L (L shows 50% or less of control values) |
| CCn1c(-c2c(F)cc(F)cc2F)c(-c2cccc(F)c2C)cc(Br)c1=O [Compound 682] | L (L shows 50% or less of control values) |
| CCn1c(-c2c(F)cc(F)cc2F)c(-c2ccccc2Cl)cc(Br)c1=O [Compound 683] | L (L shows 50% or less of control values) |
| CCOc1cc(F)c(-c2c(-c3ccccc3Cl)cc(Cl)c(=O)n2CC)c(F)c1 [Compound 684] | L (L shows 50% or less of control values) |
| CCOc1cc(F)c(-c2c(-c3ccccc3Cl)ccc(=O)n2CC)c(F)c1 [Compound 685] | L (L shows 50% or less of control values) |
| CCn1c(-c2c(F)cc(OC)cc2F)c(-c2ccccc2Cl)cc(Br)c1=O [Compound 686] | L (L shows 50% or less of control values) |
| CCn1c(-c2c(F)cc(F)cc2F)c(-c2ccccc2Cl)cc(C)c1=O [Compound 687] | L (L shows 50% or less of control values) |
| CCn1c(-c2c(F)cc(F)cc2F)c(-c2cc(F)cc(F)c2Cl)cc(Br)c1=O [Compound 688] | L (L shows 50% or less of control values) |
| CCn1c(-c2c(F)cc(F)cc2F)c(-c2cc(F)cc(F)c2Cl)cc(C)c1=O [Compound 689] | L (L shows 50% or less of control values) |
| Cc1cc(F)c(-c2c(-c3cc(F)ccc3Cl)ccc(=O)n2C)c(F)c1 [Compound 690] | L (L shows 50% or less of control values) |
| Cc1cc(F)c(-c2c(-c3cc(F)ccc3Cl)cc(Cl)c(=O)n2C)c(F)c1 [Compound 691] | L (L shows 50% or less of control values) |
| CCn1c(-c2c(F)cc(Br)cc2F)c(-c2cc(F)ccc2Cl)ccc1=O [Compound 692] | L (L shows 50% or less of control values) |
| Cc1cc(-c2cc(F)cc(F)c2Cl)c(-c2c(F)cc(F)cc2F)n(C)c1=O [Compound 694] | L (L shows 50% or less of control values) |
| CCn1c(-c2c(F)cc(OC)cc2F)c(-c2cc(F)cc(F)c2Cl)cc(Br)c1=O [Compound 695] | L (L shows 50% or less of control values) |
| CCn1c(-c2c(F)cc(F)cc2F)c(-c2cc(OC)cc(OC)c2Cl)ccc1=O [Compound 696] | L (L shows 50% or less of control values) |
| CCn1c(-c2c(F)cc(OC)cc2F)c(-c2cccc(F)c2C)ccc1=O [Compound 697] | L (L shows 50% or less of control values) |
| CCOc1cc(F)c(-c2c(-c3cccc(F)c3C)ccc(=O)n2CC)c(F)c1 [Compound 698] | L (L shows 50% or less of control values) |
| CCn1c(-c2c(F)cc(OC)cc2F)c(-c2cccc(F)c2C)cc(Cl)c1=O [Compound 699] | L (L shows 50% or less of control values) |

| Structure (SMILES) | Test F (control value class, late blight on tomato) |
| --- | --- |
| CCOc1cc(F)c(-c2c(-c3cccc(F)c3C)cc(Cl)c(=O)n2CC)c(F)c1 [Compound 700] | L (L shows 50% or less of control values) |
| CCn1c(-c2c(F)cc(OC)cc2F)c(-c2ccccc2Cl)cc(C)c1=O [Compound 701] | L (L shows 50% or less of control values) |
| CCOc1cc(F)c(-c2c(-c3ccccc3Cl)cc(C)c(=O)n2CC)c(F)c1 [Compound 702] | L (L shows 50% or less of control values) |
| CCOc1cc(F)c(-c2c(-c3ccccc3Cl)cc(Br)c(=O)n2CC)c(F)c1 [Compound 703] | L (L shows 50% or less of control values) |
| COc1ccc(Cl)c(C2=C(c3c(F)cccc3F)N(C#N)C(=O)CC2)c1 [Compound 704] | H (H shows more than 50% of control values) |
| CN1C(=O)CCC(c2ccccc2Cl)=C1c1c(F)cc(F)cc1F [Compound 705] | L (L shows 50% or less of control values) |
| CCn1c(-c2c(F)cc(Br)cc2F)c(-c2cc(F)ccc2Cl)cc(Cl)c1=O [Compound 706] | L (L shows 50% or less of control values) |
| CCn1c(-c2c(F)cc(C)cc2F)c(-c2cc(F)ccc2Cl)ccc1=O [Compound 707] | L (L shows 50% or less of control values) |
| CCn1c(-c2c(F)cc(C)cc2F)c(-c2cc(F)ccc2Cl)cc(Cl)c1=O [Compound 708] | L (L shows 50% or less of control values) |
| CCn1c(-c2c(F)cc(C)cc2F)c(-c2cc(F)ccc2Cl)cc(Br)c1=O [Compound 709] | L (L shows 50% or less of control values) |
| CCn1c(-c2c(F)cc(C)cc2F)c(-c2cc(F)ccc2Cl)cc(C)c1=O [Compound 710] | L (L shows 50% or less of control values) |
| CCn1c(-c2c(F)cc(OC)cc2F)c(-c2cccc(F)c2C)cc(Br)c1=O [Compound 711] | L (L shows 50% or less of control values) |
| CCOc1cc(F)c(-c2c(-c3cccc(F)c3C)cc(Br)c(=O)n2CC)c(F)c1 [Compound 712] | L (L shows 50% or less of control values) |
| CCOc1cc(F)c(-c2c(-c3cccc(F)c3C)cc(C)c(=O)n2CC)c(F)c1 [Compound 713] | L (L shows 50% or less of control values) |
| CCn1c(-c2c(F)cc(OC)cc2F)c(-c2cc(F)cc(F)c2Cl)cc(C)c1=O [Compound 714] | L (L shows 50% or less of control values) |
| CCn1c(-c2c(F)cc(F)cc2F)c(-c2ccccc2Cl)ccc1=O [Compound 715] | L (L shows 50% or less of control values) |
| CCn1c(-c2c(F)cc(OC)cc2F)c(-c2cc(OC)cc(OC)c2Cl)ccc1=O [Compound 716] | L (L shows 50% or less of control values) |
| COc1cc(F)c(-c2c(-c3cc(F)cc(F)c3Cl)cc(Br)c(=O)n2C)c(F)c1 [Compound 717] | L (L shows 50% or less of control values) |
